PubChem BioAssay AID686979 (National Center for Advancing Translational Sciences (NCATS), 2013)
Hit rate of the full screen: of about 420,000 compounds, about 50,000 (12%) were called active. Inconclusive means that the source gave no clear call. Such entries were picked first, then a sample of the others. Calls follow the shape of the dose curve; as a rule, active = well fitted inhibition curve with a large enough effect; inconclusive = small, poorly fitted or top-dose-only effect; inactive = flat fitted curve, though single readings scatter. No potency is given beside an inconclusive call; the fits are too rough.

Experiment: qHTS for Inhibitors of human tyrosyl-DNA phosphodiesterase 1 (TDP1): qHTS in cells in presence of CPT; also: nearly all actives have a fitted effect of over 55% in size
Conditions: chicken DT40 Tdp1-/-;hTDP1 cells + 20 nM CPT, ATP luminescence, 48 h; activity change, negative = growth inhibition: at 46.2 µM (top of the series) unless noted
Procedure, shortened: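 Cell growth measured by CellTiter-Glo luminescence after a minimum 48 h, 37 C compound exposure with 20 nM CPT in Tdp1-knockout DT40 cells stably expressing hTDP1, seeded 400/well; qHTS titration format.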
% is scaled to controls: 0 for no effect and ±100 for the full control effect; potency is read from the fitted curve at half-maximal effect; tags tell the direction and shape of the fitted curve.

SMILES	Potency	activity change, negative = growth inhibition
Cc1cnc(C(=O)N(CCCn2ccnc2)C2C(=O)Nc3ccccc3N=C2c2ccccc2)cn1 (centres undefined)	inconclusive [inhibitor, single point]	
Cc1ccc2nc(NC(=O)CSc3nnc(C)c(=O)n3N)sc2c1	inactive	
COc1ccc(C(=O)NCC(=O)OCC(=O)c2cccc3ccccc23)cc1	inconclusive [inhibitor, partial curve]	
COc1ccc2c(c1)c(=O)c(C(=O)c1ccc(Cl)cc1)cn2CC(=O)Nc1ccc(F)cc1	inconclusive [inhibitor, single point]	
CC1CN(CCCCOc2cccc(Oc3ccccc3)c2)CC(C)O1 (centres undefined)	inconclusive [inhibitor, single point]	
Cc1ccc(S(=O)(=O)C(CNC(=O)C(=O)NCCc2ccc(F)cc2)c2cccs2)cc1 (centres undefined)	inconclusive [inhibitor, partial curve]	
O=C(CSc1nc2c([nH]c3ccccc32)c(=O)n1-c1ccc(F)cc1)Nc1ccc2c(c1)OCO2	inconclusive [inhibitor, single point]	
CCCCOc1ccc(C(=O)NCC(=O)OCCCOC(=O)CNC(=O)c2ccc(OCCCC)cc2)cc1	inconclusive [inhibitor, single point]	
COc1ccccc1NC(=O)CSc1nnc(CC(=O)Nc2cccc(C(F)(F)F)c2)n1C	inconclusive [inhibitor, single point]	
COc1ccc(OC)c(NC(=O)C2CCCN2C(=O)C2CCC(C)CC2)c1 (centres undefined)	inconclusive [inhibitor, single point]	
CCOC(=O)c1ccc(N/C=C/C(=O)c2ccco2)cc1	inactive	
CC(=O)C1=CCC(c2ccccc2)N(S(C)(=O)=O)C1 (centres undefined)	inactive	
CCN1c2ccccc2-c2nc(SCC(=O)Nc3cc(C)c(Cl)cc3OC)ncc2S1(=O)=O	inconclusive [inhibitor, single point]	
N#Cc1c(C(F)(F)F)cc(-c2cccs2)nc1SCC(=O)O	inactive	
O=C1Nc2ccc(Br)cc2/C1=C/C(=O)c1ccc2c(c1)OCO2	active: 5.8 µM	
Cc1cccc(NC(=O)CN2CCN(C(=O)CN3C(=O)NC4(CCCCC4C)C3=O)CC2)c1C (centres undefined)	inconclusive [inhibitor, partial curve]	
Cc1cc(C)cc(NC(=O)[C@H](Cc2c[nH]c3ccccc23)NC(=O)[C@@H]2Cc3ccccc3CN2)c1	inconclusive [inhibitor, single point]	
Oc1c(C(c2cccc(Cl)c2)N2CCOCC2)sc2nc(-c3ccco3)nn12 (centres undefined)	inactive	
Cc1ccc(C(=O)Nc2cccc(C(=O)NCc3ccccc3)c2)cc1	inconclusive [inhibitor, single point]	
O=C(Nc1ccc(F)c(Cl)c1)C1CCN(c2ncccn2)CC1	inactive	
COc1cc([N+](=O)[O-])ccc1N1C(=O)CC(Sc2nccc(C)n2)C1=O (centres undefined)	inconclusive [inhibitor, single point]	
Cc1ccc(CN2CCN(Cc3ccc4c(c3)OCCO4)CC2CCO)cc1 (centres undefined)	inactive	
CC(C)CN1C(=O)/C(=C/c2ccco2)NC1=S	inconclusive [inhibitor, single point]	

SMILES	Potency	activity change, negative = growth inhibition
COc1ccc(CCNC(=O)c2c3c(nc4ccccc24)C(=O)N(C2CCCCC2)C3)cc1OC	active: 20.6 µM	
CN(C)c1ccc2c(O)cc(=O)n(C)c2c1	active: 14.6 µM	
CCNC(=O)CC1SC(=Nc2ccc(Cl)cc2)N(CC)C1=O (centres undefined)	inconclusive [inhibitor, single point]	
CCCN1Cc2cccc(C(=O)NC(CC(=O)OCC)c3ccc(OC(C)C)cc3)c2C1=O (centres undefined)	inconclusive [inhibitor, single point]	
O=C(COc1ccc(F)cc1)NCc1ccc2c(c1)CCN2C(=O)c1ccc(F)cc1	inactive	
Cc1ccc(C)c(N2CCN(c3nc4ccccc4n4nnnc34)CC2)c1	inconclusive [inhibitor, single point]	
Cc1ccccc1CNC(=O)c1cc2ccccc2o1	inconclusive [inhibitor, single point]	
O=C(Nc1cccc(-c2nc3ccccc3s2)c1)c1cc(=O)c2ccccc2o1	inconclusive [inhibitor, full curve]	
O=C(NCc1ccccc1)N1CCN(c2ccc(Cl)c(Cl)c2)CC1	active: 18.4 µM	
COC(=O)C1=CN(Cc2ccccc2)C=C(C(=O)OC)C1c1cc(F)ccc1F	inactive	
Cc1cc(-n2c(C)nc3ccccc3c2=O)ccc1NC(=O)c1cccc([N+](=O)[O-])c1C	active: 13 µM	
O=C(NCc1ccccc1)C(c1ccccc1F)N(CC1CCCO1)C(=O)c1ccccn1 (centres undefined)	inconclusive [inhibitor, single point]	
O=C(Nc1cccc2ncccc12)c1ccc(OCc2ccccc2)cc1	inconclusive [inhibitor, partial curve, poor fit]	
COc1ccc(C2/C=C\CN(S(=O)(=O)c3ccc(C)cc3)[C@H](Cc3ccccc3)C(=O)N2Cc2ccc(F)cc2)cc1 (some centres undefined)	inconclusive [inhibitor, single point]	
CCN1C(=O)N/C(=C/c2ccc(C)o2)C1=O	active: 23.1 µM	
CCOCCCN(C)C1CCN(C(=O)c2oc3ccccc3c2NC(=O)c2ccc(F)cc2)CC1		inconclusive: -31.8% [inhibitor]
CC1CCC(C(C)C)C(OC(=O)CSc2nnc(N)s2)C1 (centres undefined)	inconclusive [inhibitor, full curve, poor fit]	
Cc1cc(Br)cc(C)c1OCC(=O)Nc1ccc(S(=O)(=O)Nc2ncccn2)cc1	inconclusive [inhibitor, single point]	
O=C(CSc1nnc(-c2ccc(S(=O)(=O)N3CCCC3)cc2)o1)NCc1ccco1	inactive	
COCCn1c(=O)[nH]c2cc(C(=O)N3CCN(c4ccc(F)cc4)CC3)ccc2c1=O	inconclusive [inhibitor, single point]	
O=C(Nc1nccs1)C1CCCN(S(=O)(=O)c2cccnc2)C1 (centres undefined)	inconclusive [inhibitor, partial curve]	
O=C(Cn1cnc([N+](=O)[O-])c1)Nc1cc(Oc2ccc(Cl)cc2Cl)cc([N+](=O)[O-])c1	active: 16.4 µM	
Cc1ccc(C(C(=O)NC2CCCC2)N(Cc2ccc(F)cc2)C(=O)c2snc(C(N)=O)c2N)o1 (centres undefined)	inconclusive [inhibitor, single point]	

SMILES	Potency	activity change, negative = growth inhibition
Cc1nc(NC(=O)c2ccco2)sc1-c1csc(Nc2ccc(Cl)cc2Cl)n1	active: 23.1 µM	
CC1(C(=O)NS(C)(=O)=O)CCN1C(=O)CC(c1ccccc1)c1ccccc1 (centres undefined)	inactive	
O=c1c2c(nc3cc(-c4ccc(Br)cc4)[nH]n13)CCCC2	inconclusive [inhibitor, single point]	
CCCn1c(SCCc2ccccc2)nc2c1c(=O)[nH]c(=O)n2C	inconclusive [inhibitor, single point]	
COc1ccc([N+](=O)[O-])cc1NC(=O)COC(=O)c1ccc(O)cc1	inactive	
CC1(C(=O)NCc2cccc(Cl)c2)Cc2c(-c3ccccc3)ccnc2O1 (centres undefined)	active: 16.4 µM	
COc1cc2c(cc1OC)CN(C(=O)c1cccc(S(=O)(=O)N3CCc4ccccc43)c1)CC2	active: 20.6 µM	
Nc1c(N(CCC2=CCCCC2)C(=O)COc2ccc(F)cc2Cl)c(=O)[nH]c(=O)n1Cc1ccccc1	active: 5.8 µM	
O=C(NCCc1csc(-c2ccc(C(F)(F)F)cc2)n1)c1ccccc1Cl	inconclusive [inhibitor, single point]	
CC1=NN(c2cccc(C(=O)O)c2)C(=O)/C1=C\C=C/c1ccccc1	active: 0.58 µM	
CCCCCOC(=O)C1=C(C)NC(=O)NC1c1ccccc1OCC (centres undefined)	inconclusive [inhibitor, single point]	
CCOC(=O)c1ccc(-n2c(=S)sc3c(=O)[nH]c(C)nc32)cc1	inconclusive [inhibitor, single point]	
CCOCc1c(C(=O)Nc2cc(OCC)c(N3CCOCC3)cc2OCC)oc2ccccc12	inconclusive [inhibitor, single point]	
Cc1cc(C)n(C(C[N+](=O)[O-])c2ccc(Cl)cc2)n1 (centres undefined)	active: 2.31 µM	
O=C1NC[C@H](c2ccccc2)N(CCc2cccc3ccccc23)C1=O	inconclusive [inhibitor, single point]	
CC(C)c1nnc(NC(=O)C2CCN(C(=O)C(C)(C)C)CC2)s1	inactive	
CC(C)(C)N(NC(=O)OCc1ccccc1)C(=O)c1ccccc1Cl	inactive	
CCc1ccc(C(=O)NC(=S)Nc2ccc(N3CCOCC3)cc2)cc1	inconclusive [inhibitor, single point]	
O=C(COC(=O)/C=C/c1ccc(Cl)cc1)NC(=O)NCc1ccccc1	inconclusive [inhibitor, single point]	
Cc1ccc(Nc2cc(=O)[nH]c(=O)[nH]2)cc1Cl	inconclusive [inhibitor, single point]	
Cc1cc(N2CCOCC2)nc2ccc(NC(=S)NCc3ccc4c(c3)OCO4)cc12	inconclusive [inhibitor, single point]	
N/C(=N\OC(=O)c1cc(Cl)ccc1Cl)c1ccccn1	inactive	
Cc1cc(C(=O)COC(=O)c2n[nH]c(=O)c3ccccc23)c(C)n1C	inactive	
